To fix the notation:
B1: PhoQ; a variant is named by its letters at X, in order, P23837 (parent)
chain: MKKLLRLFFPLSLRVRFLLATAAVVLVLSLAYGMVALIGYSVSFDKTTFRLLRGESNLFYTLAKWENNKLHVELPENIDKQSPTMTLIYDENGQLLWAQRDVPWLMKMIQPDWLKSNGFHEIEADVNDTSLLLSGDHSIQQQLQEVREDDDDAEMTHSVAVNVYPATSRMPKLTIVVVDTIPVELKSSYMVWSWFIYVLSANLLLVIPLLWVAAWWSLRPIEALAKEVRELEEHNRELLNPATTRELTSLVRNLNRLLKSERERYDKYRTTLTDLTHSLKTPLXXLQXXLRSLRSEKMSVSDAEPVMLEQISRISQQIGYYLHRASMRGGTLLSRELHPVAPLLDNLTSALNKVYQRKGVNISLDISPEISFVGEQNDFVEVMGNVLDNACKYCLEFVEISARQTDEHLYIVVEDDGPGIPLSKREVIFDRGQRVDTLRPGQGVGLAVAREITEQYEGKIVAGESMLGGARMEVIFGRQHSAPKDE

The other results are listed elsewhere or left out.

The experiment covers variants of B1. Put plainly: enrichment ratio after two sorts for PhoP signalling (ratio (wild type AVST 3.29)); higher = more functional. The conditions noted are these: with PhoP (E. coli).
Consider KTTA, for which the enrichment ratio is at most 0.25. In the case of HKEN, the enrichment ratio is at most 0.25. As for QLHI, the figure is at most 0.25; as for WWSK, at most 0.25. Consider VPGV, for which the enrichment ratio was at most 0.25. In the case of RYNL, the enrichment ratio is at most 0.25. As for FGRP, the figure is at most 0.25; as for VNVF, 0.841.

Regarding GWQV, the enrichment ratio was at most 0.25. As for VVSK, the figure is at most 0.25.

Turning to RPVI, the enrichment ratio was at most 0.25.

Take NMPW: the enrichment ratio is at most 0.25.

On to ATPT, for which the enrichment ratio was at most 0.25. Then PHGD, with at most 0.25; and GWFY, with at most 0.25. As for WGWQ, the figure is at most 0.25. As for GLQL, the figure is at most 0.25. Take ALWA: the enrichment ratio was at most 0.25. Then HDQV, with at most 0.25. As for FHSQ, the figure is at most 0.25; as for IPEA, at most 0.25. Then NIPP, with at most 0.25; and IMRP, with at most 0.25. Regarding WTKY, the enrichment ratio was at most 0.25. Regarding HAFF, the enrichment ratio is at most 0.25. As for IGTA, the figure is at most 0.25; as for KFRV, at most 0.25. On to WTFE, for which the enrichment ratio is at most 0.25. Then IRCE, with at most 0.25.

As to HYPP, the enrichment ratio is at most 0.25. Then QLDI, with at most 0.25; and FDDC, with at most 0.25. Then VCHI, with at most 0.25; and PFCC, with at most 0.25; and IGLL, with 5.51.

For LLMS, the enrichment ratio was at most 0.25.

As to ARWD, the enrichment ratio is at most 0.25. As for RFDW, the figure is at most 0.25; as for CSYA, at most 0.25; as for PQYL, at most 0.25.

Turning to RLCH, the enrichment ratio was at most 0.25. RVHM: the enrichment ratio was at most 0.25. Then HFDE, with at most 0.25; and IAMC, with at most 0.25. Then SWGQ, with at most 0.25; and DPYW, with at most 0.25. LACE: the enrichment ratio was at most 0.25. For QREK, the enrichment ratio was at most 0.25.

For the variant KVHD, the enrichment ratio was at most 0.25.

Consider KKEV, for which the enrichment ratio is at most 0.25. For the variant YQIY, the enrichment ratio was at most 0.25.

Consider LSFN, for which the enrichment ratio is at most 0.25.

In the case of KCQS, the enrichment ratio was at most 0.25. Then MKDH, with at most 0.25; and PSMR, with at most 0.25. As for QPRQ, the figure is at most 0.25. Then AEFF, with 1.23; and NIAT, with at most 0.25. As for DWLW, the enrichment ratio was at most 0.25.

Regarding VCRI, the enrichment ratio is at most 0.25. As for AMHP, the figure is at most 0.25; as for RYGE, at most 0.25. Consider SNDF, for which the enrichment ratio was at most 0.25. Then KVAG, with at most 0.25; and DGPD, with at most 0.25. As for HYAK, the figure is at most 0.25; as for WPDQ, at most 0.25. Then LRHE, with at most 0.25; and PNHG, with at most 0.25. As to IAWG, the enrichment ratio is at most 0.25. As for LDHN, the figure is 3.73; as for RPIY, at most 0.25.

Turning to GIVQ, the enrichment ratio is 2.03. Then PCLC, with at most 0.25; and FEKQ, with at most 0.25. Then HTAH, with at most 0.25; and QSNR, with at most 0.25. Take ETKP: the enrichment ratio was at most 0.25. As for LMDQ, the figure is at most 0.25; as for IIFY, at most 0.25; as for YCEG, at most 0.25. Then KKVK, with at most 0.25.

Take YHGF: the enrichment ratio was at most 0.25.

YKYL: the enrichment ratio was found to be 0.524. Then PRSR, with at most 0.25; and IWWQ, with at most 0.25; and TTCC, with 11.5. Consider WWRL, for which the enrichment ratio is at most 0.25. Then KDRS, with at most 0.25; and HSSC, with at most 0.25; and TPLP, with at most 0.25. Then YYPW, with at most 0.25. As for WHDL, the figure is at most 0.25.

Consider IMQI, for which the enrichment ratio is at most 0.25. Then EGDD, with at most 0.25. Turning to HPYS, the enrichment ratio was at most 0.25. For SDYM, the enrichment ratio was at most 0.25. On to GKCN, for which the enrichment ratio is at most 0.25. As for QVDD, the figure is at most 0.25; as for KNIK, at most 0.25. For ICQS, the enrichment ratio is at most 0.25. As for HFMV, the figure is at most 0.25. SLHI: the enrichment ratio is at most 0.25. Then TQQY, with 15.1; and VMGL, with at most 0.25; and RICQ, with at most 0.25. Then NSSS, with at most 0.25; and LYSQ, with at most 0.25.

As to VEFD, the enrichment ratio is at most 0.25. As for MKRD, the figure is at most 0.25. Then HPDN, with at most 0.25. As for IIYP, the figure is at most 0.25. For LGNE, the enrichment ratio is at most 0.25. Then FIML, with 1.84.

For YDLN, the enrichment ratio was at most 0.25. MQQY: the enrichment ratio was at most 0.25. Then HHKN, with at most 0.25; and KGCG, with at most 0.25. As for GVGG, the figure is at most 0.25. As for NRHH, the figure is at most 0.25; as for KMPY, at most 0.25; as for FCDR, at most 0.25. Regarding AGQT, the enrichment ratio was at most 0.25. Then YDEV, with at most 0.25; and SRSH, with at most 0.25. Then NYEA, with at most 0.25; and INHQ, with at most 0.25; and LIHF, with at most 0.25.

As to YMDK, the enrichment ratio is at most 0.25. Then WFPR, with at most 0.25. As for YQKH, the figure is at most 0.25; as for IKQI, at most 0.25. ACDL: the enrichment ratio is at most 0.25. With LMFN, the enrichment ratio is at most 0.25. As for YCHL, the enrichment ratio was at most 0.25. As for QQSF, the figure is at most 0.25; as for KHQK, at most 0.25; as for FQFI, at most 0.25.

On to QAGD, for which the enrichment ratio was at most 0.25. As for NFMK, the figure is at most 0.25; as for GCLP, 0.401.

With RTIF, the enrichment ratio is at most 0.25. With GYCP, the enrichment ratio is at most 0.25.

As for QHFF, the enrichment ratio was at most 0.25. Consider QNAM, for which the enrichment ratio is at most 0.25. As for ATCA, the figure is 5.9.

Turning to ERTL, the enrichment ratio is at most 0.25. Consider GEYS, for which the enrichment ratio is at most 0.25. For the variant EQVN, the enrichment ratio is at most 0.25.

Turning to ACMT, the enrichment ratio worked out at 10.1. As for FREH, the figure is at most 0.25; as for ECEY, at most 0.25; as for NHWK, at most 0.25.

(Values after a collection of fitness landscapes (doi:10.1126/science.1257360).)
